Source: the RNAGym collection of RNA variant scans (doi:10.1101/gad.245936.114)
Variants at the floor of the assay are shown more often than the library holds them.

B1: tRNA (parent)
chain: CUCUCGGUAGCCAAGUUGGUUUAAGGCGCAAGACUUUAAUUUAUCACUACGAAAUCUUGAGAUCGGGCGUUCGACUCGCCCCCGGGAGAUUUUUUCCUCGAGCAA

Variants of: B1
Assay: nonsense suppression (GFP-seq) (ratio to wild type); higher = more function; SUP4oc tRNA, yeast GFP reporter sort-seq
In short: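 Each variant's nonsense suppression (GFPSEQ) is a cell-share-weighted bin median GFP/RFP relative to the unmutated parent tRNA. Yeast with genome-integrated tRNA variants from a ~3% random-mutation library, a galactose-driven GFP ochre reporter and RFP were grown in raffinose/galactose medium with 80 mg/L adenine, then sorted into GFP/RFP bins for Illumina sequencing. Variants needed ≥100 reads and ≥30 cells.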

Row | Variant | nonsense suppression
1 | CUCUCGGUAGCCAAGUUGGUUUAAGGCGCAAGACUUUAAUUUAUCACUACGAAAUCUUGAGAGCGGGCGUUCGACACGCCCCCGGGAGAUUUUUUCCUCGAGCAA | 0.433
2 | CUCUCGGUAGCCAAGUUGGUUUAAGGCGCAAGACUUUAAUUUAUCACUACGAAAUCUUGAGAGCGGGCGUUCGACACGCCCCCGGGACAUUUUUUCCUCGAGCAA | ≤ 0.026
3 | CUCUCGGUAGCCAAGUUGGUUUAAGGCGCAAGACUUUAAUUUAUCACUACGAAAUCUUGAGAUAGGGCGUUCGACUCGCCCCCGGGAGAUUUUUUCCUCGAGCAA | ≤ 0.026
4 | CUCUCGGUAGCCAAGUUGGUUUAAGGCGCAAGACUUUAAUUUAUCACUACGAAAUCUUGAGAUAGGGCGUUUGACUCGCCCCCGGGAGAUUUUUUCCUCGAGCAA | ≤ 0.026
5 | CUCUCGGUAGCCAAGUUGGUUUAAGGCGCAAGACUUUAAUUUAUCACUACGAAAUCUUGAGAUAGGGCGUUCGACUGGCCCCCGGGAGAUUUUUUCCUCGAGCAA | ≤ 0.026
6 | CUCUCGGUAGCCAAGUUGGUUUAAGGCGCAAGACUUUAAUUUAUCACUACGAAAUCUUGAGAUAGGGCGUUCGACUCGCCUCCGGGAUAUUUUUUCCUCGAGCAA | ≤ 0.026
7 | CUCUCGGUAGCCAAGUUGGUUUAAGGCGCAAGACUUUAAUUUAUCACUACGAAAUCUUGAGAUAGGGCGUUCGACUCGCCCCAGGGAGAUUUUUUCCUCGAGCAA | ≤ 0.026
8 | CUCUCGGUAGCCAAGUUGGUUUAAGGCGCAAGACUUUAAUUUAUCACUACGAAAUCUUGAGAUAGGGCGUUCGACUCGCCCCGGGGAGAUUUUUUCCUCGAGCAA | ≤ 0.026
9 | CUCUCGGUAGCCAAGUUGGUUUAAGGCGCAAGACUUUAAUUUAUCACUACGAAAUCUUGAGAUACGGCGUUCGACUCGCCCCCGGGAGAUUUUUUCCUCGAGCAA | ≤ 0.026
10 | CUCUCGGUAGCCAAGUUGGUUUAAGGCGCAAGACUUUAAUUUAUCACUACGAAAUCUUGAGAUAGCGCGUUCGACUCGCCCCCGGGAGAUUUUUUCCUCGAGCAA | ≤ 0.026
11 | CUCUCGGUAGCCAAGUUGGUUUAAGGCGCAAGACUUUAAUUUAUCACUACGAAAUCUUGAGAUAGCGCGUUCGACUCGACCCCGGGAGAUUUUUUCCUCGAGCAA | ≤ 0.026
12 | CUCUCGGUAGCCAAGUUGGUUUAAGGCGCAAGACUUUAAUUUAUCACUACGAAAUCUUGAGAUAGGCCGUUCGACUCGCCCCCGGGAGAUUUUUUCCUCGAGCAA | ≤ 0.026
13 | CUCUCGGUAGCCAAGUUGGUUUAAGGCGCAAGACUUUAAUUUAUCACUACGAAAUCUUGAGAUAGGGCGUUCGACUCUCCCCCGGGAGAUUUUUUCCUCGAGCAA | ≤ 0.026
14 | CUCUCGGUAGCCAAGUUGGUUUAAGGCGCAAGACUUUAAUUUAUCACUACGAAAUCUUGAGAUAGGGCGUUCGACUCGCCCCCGGCACAUUUUUUCCUCGAGCAA | ≤ 0.026
15 | CUCUCGGUAGCCAAGUUGGUUUAAGGCGCAAGACUUUAAUUUAUCACUACGAAAUCUUGAGAUAGGGCGUUCGACACGCCGCCGGGAGAUUUUUUCCUCGAGCAA | ≤ 0.026
16 | CUCUCGGUAGCCAAGUUGGUUUAAGGCGCAAGACUUUAAUUUAUCACUACGAAAUCUUGAGAUGGGGCGUUCGACUCGCCCCCGGGAGAUUUUUUCCUCGAGCAA | ≤ 0.026
17 | CUCUCGGUAGCCAAGUUGGUUUAAGGCGCAAGACUUUAAUUUAUCACUACGAAAUCUUGAGAUGGGGCGUUUGACUCGCCCCCGGGAGAUUUUUUCCUCGAGCAA | ≤ 0.026
18 | CUCUCGGUAGCCAAGUUGGUUUAAGGCGCAAGACUUUAAUUUAUCACUACGAAAUCUUGAGAUGGGGCGUUUUACUCGCCCCCGGGAGAUUUUUUCCUCGAGCAA | ≤ 0.026
19 | CUCUCGGUAGCCAAGUUGGUUUAAGGCGCAAGACUUUAAUUUAUCACUACGAAAUCUUGAGAUGGGGCGUUCGACUGGCCCCCGGGAGAUUUUUUCCUCGAGCAA | ≤ 0.026
20 | CUCUCGGUAGCCAAGUUGGUUUAAGGCGCAAGACUUUAAUUUAUCACUACGAAAUCUUGAGAUGGGGCGUUCGACUUGCCCCCGGGAGAUUUUUUCCUCGAGCAA | ≤ 0.026
21 | CUCUCGGUAGCCAAGUUGGUUUAAGGCGCAAGACUUUAAUUUAUCACUACGAAAUCUUGAGAUGGGGCGUUCGACUCGACCCCGGGAGAUUUUUUCCUCGAGCAA | ≤ 0.026
22 | CUCUCGGUAGCCAAGUUGGUUUAAGGCGCAAGACUUUAAUUUAUCACUACGAAAUCUUGAGAUGGGGCGUUCGACUCGGCACCGGGAGAUUUUUUCCUCGAGCAA | ≤ 0.026
23 | CUCUCGGUAGCCAAGUUGGUUUAAGGCGCAAGACUUUAAUUUAUCACUACGAAAUCUUGAGAUGGGGCGUUCGACUCGCCGCCGGGAGAUUUUUUCCUCGAGCAA | ≤ 0.026
24 | CUCUCGGUAGCCAAGUUGGUUUAAGGCGCAAGACUUUAAUUUAUCACUACGAAAUCUUGAGAUGGGGCGUUCGACUCGCCCGCGGGAGAUUUUUUCCUCGAGCAA | ≤ 0.026
25 | CUCUCGGUAGCCAAGUUGGUUUAAGGCGCAAGACUUUAAUUUAUCACUACGAAAUCUUGAGAUGUGGCGCUCCACUCGCCCCCGGGAGAUUUUUUCCUCGAGCAA | ≤ 0.026
26 | CUCUCGGUAGCCAAGUUGGUUUAAGGCGCAAGACUUUAAUUUAUCACUACGAAAUCUUGAGAUGGAGCGUUCCACUCGCCCCCGGGAGAUUUUUUCCUCGAGCAA | ≤ 0.026
27 | CUCUCGGUAGCCAAGUUGGUUUAAGGCGCAAGACUUUAAUUUAUCACUACGAAAUCUUGAGAUGGCGCGUUCGACUCGCCCCCGGGAGAUUUUUUCCUCGAGCAA | ≤ 0.026
